# Experimental data as given in PubChem BioAssay AID2147 (National Center for Advancing Translational Sciences (NCATS), 2009).
# Among all 230,000 compounds or so, about 3,600 (1.6%) were called active. Inconclusive means that the source gave no clear call. Such entries were picked first, then a sample of the others. Calls follow the shape of the dose curve; as a rule, active = well fitted inhibition curve with a large enough effect (not every such curve was filed as active); inconclusive = small, poorly fitted or top-dose-only effect, or another doubt; inactive = no such curve, though single readings can be large or run the other way. A potency beside an inconclusive call is a rough fit, not a confirmed value.
# Target: Lysine-specific demethylase 4E (Homo sapiens) (UniProt B2RXH2)
# Assay: qHTS Assay for Inhibitors of Human Jumonji Domain Containing 2E (JMJD2E)
# Details: JMJD2E catalytic domain, FDH-coupled NADH fluorescence (FDH is formaldehyde dehydrogenase); series mostly up to 57.1 µM
# Also: nearly all actives have a fitted effect of over 50% in size.
# Potency is read from the fitted curve at half-maximal effect; tags tell the direction and shape of the fitted curve.
# Chain of UniProt B2RXH2 (B2RXH2 whole entry, looked up, the tested form may be a part): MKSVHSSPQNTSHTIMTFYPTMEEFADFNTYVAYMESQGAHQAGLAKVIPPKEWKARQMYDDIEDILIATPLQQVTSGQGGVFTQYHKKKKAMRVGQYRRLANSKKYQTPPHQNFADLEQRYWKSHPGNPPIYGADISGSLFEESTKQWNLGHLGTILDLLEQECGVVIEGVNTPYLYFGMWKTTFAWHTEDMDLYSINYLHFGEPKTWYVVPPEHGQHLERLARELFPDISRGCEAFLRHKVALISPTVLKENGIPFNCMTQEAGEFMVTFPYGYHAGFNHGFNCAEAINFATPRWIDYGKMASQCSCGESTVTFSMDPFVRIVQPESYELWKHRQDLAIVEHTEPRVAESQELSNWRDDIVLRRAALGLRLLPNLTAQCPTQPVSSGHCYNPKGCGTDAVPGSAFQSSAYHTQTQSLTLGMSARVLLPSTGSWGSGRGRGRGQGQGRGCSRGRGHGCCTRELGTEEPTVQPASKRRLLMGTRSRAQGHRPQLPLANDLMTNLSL
row,Compound,Potency
1,CCCC(=O)c1ccc(N2CCN(C(=O)c3ccc(Br)cc3)CC2)c(F)c1,"inconclusive: 39.8 µM [inhibitor, single point]"
2,CCOC(=O)c1ccc(Nc2nc(C)cc(C)c2C#N)cc1,"inconclusive: 25.1 µM [inhibitor, partial curve]"
3,Cc1nc(NCCc2ccccc2F)c(C#N)c(C)c1[N+](=O)[O-],inactive
4,CCN[C@@H]1CN(CCCOC)S(=O)(=O)c2sc(S(N)(=O)=O)cc21,inactive
5,Cc1cc(C)cc(Oc2coc3cc(OC(=O)c4cccnc4)ccc3c2=O)c1,"inconclusive: 28.2 µM [inhibitor, partial curve]"
6,COc1cccc(NC(=O)Nc2cc(NC(=O)Nc3cccc(OC)c3)c(C)nc2C)c1,inactive
7,CCOC(=O)C1=C(C)NC2=C(C(=O)C(C(=O)OCC)C(c3ccco3)C2)C1c1ccccn1 (centres undefined),"inconclusive: 31.6 µM [inhibitor, partial curve]"
8,CCOC(=O)c1[nH]c2ccccc2c1NC(=O)COC,"inconclusive: 28.2 µM [inhibitor, partial curve]"
9,COCCN(Cc1cc2cc(C)c(C)cc2nc1Cl)C(=O)Nc1ccccc1,inactive
10,CC(C)c1ccc(S(=O)(=O)/N=C2/C=CC(=O)c3ccccc32)cc1,inactive
11,COCCN(C(=O)Cc1cccs1)c1nnc(-c2ccncc2)s1,"inconclusive: 25.1 µM [inhibitor, single point]"
12,CC(C)CC(=O)/C(=C\c1ccc(Cl)cc1Cl)n1cncn1,inactive
13,O=C(C1CCC(CNS(=O)(=O)c2cccc3cccnc23)CC1)N1CCCC1 (centres undefined),inactive
14,O=C(Nc1sc2c(c1C(=O)NCc1ccco1)CCCC2)c1ccc2c(c1)OCO2,"inconclusive: 35.5 µM [inhibitor, partial curve]"
15,CCc1cc(C(=O)OC)c(NC(=O)CC2Nc3cc(C)c(C)cc3NC2=O)s1 (centres undefined),"inconclusive: 17.8 µM [inhibitor, single point]"
16,Cc1cn2c(nc1=O)OC1C(O)C(COC(=O)c3ccccc3)OC12 (centres undefined),inactive
17,c1ccc(-c2ccccc2OCCOCCN2CCc3ccccc3C2)cc1,inactive
18,CCOc1ccc(N2C(=O)C(Cl)=C(Nc3ccccc3O)C2=O)cc1,inactive
19,O=C(CSc1nnnn1-c1cccc2c1CCCC2)NC1CCCC1,inactive
20,CCn1ccnc1C(O)c1ccc(N(C)C)cc1 (centres undefined),inactive
21,CC/C=C\C/C=C\C/C=C\CCCCCCCCCCCC(=O)O,inactive
22,CCC/C=C(\CCC)C(NS(=O)(=O)c1cccs1)c1ccc(C(=O)OC)cc1 (centres undefined),inactive
23,CCOC(=O)Cc1csc(SCC(=O)Nc2sc3c(c2C(N)=O)CCC3)n1,"inconclusive: 31.6 µM [inhibitor, single point]"
24,COc1ccccc1Oc1c(C)oc2cc(OC(=O)c3ccco3)ccc2c1=O,"inconclusive: 15.8 µM [inhibitor, partial curve]"
25,Cc1ccc(/C=C/C(=O)OCC(=O)NCCN2C(=O)CSC2=O)cc1,"inconclusive: 25.1 µM [inhibitor, partial curve]"

row,Compound,Potency
1,Cc1nc2ccccc2nc1OCc1cccc([N+](=O)[O-])c1,inactive
2,CCc1sc(N(C(=O)Cc2ccccc2)c2ccccc2F)nc1-c1ccc(C)cc1,"inconclusive: 39.8 µM [inhibitor, single point]"
3,O=C1NC(=O)c2c(NC(=O)C3CCCO3)cccc21 (centres undefined),"inconclusive: 28.2 µM [inhibitor, partial curve]"
4,COc1cccc(OC)c1C(=O)Nc1nc2cc3c(cc2s1)OCO3,"inconclusive: 35.5 µM [inhibitor, single point]"
5,COc1ccc(CCNC(=O)COC(=O)/C=C/c2ccc(OCC#N)c(OC)c2)cc1OC,"inconclusive: 35.5 µM [inhibitor, partial curve]"
6,CC(C)n1c(-c2cccs2)nc2ccccc21,"inconclusive: 22.4 µM [inhibitor, partial curve]"
7,CCOc1ccccc1NC(=O)C(=O)N/N=C/c1ccc([N+](=O)[O-])cc1,inactive
8,COC(=O)c1c(NC(=O)CN2CCC3(O)CCCCC3C2c2ccc(F)cc2)sc(C)c1C (centres undefined),"inconclusive: 28.2 µM [inhibitor, single point]"
9,O=C1c2sc3nc4c(c(=O)n3c2C(=O)N1c1ccccc1)CCC4,inactive
10,CC(=O)c1ccc(NC(=S)Nc2ccc3cn[nH]c3c2)cc1,"inconclusive: 0.708 µM [inhibitor, full curve]"
11,O=C(Nc1ccc(Cl)cc1)Nc1ccc2c(c1)N1CCN=C1S2,inactive
12,O=[N+]([O-])c1ccccc1/C=N/n1c(C(F)(F)F)n[nH]c1=S,"inconclusive: 31.6 µM [inhibitor, single point]"
13,Cc1c(-c2ccc(O)cc2)nn(-c2ccc(O)cc2)c1-c1ccc(OCCN2CCCCC2)cc1,"inconclusive: 35.5 µM [inhibitor, partial curve]"
14,CCN(CC)CCCNC(=O)c1c(O)c2c([nH]c1=O)CCCC2,"inconclusive: 39.8 µM [inhibitor, single point]"
15,O=S(=O)(Nc1ccc(S(=O)(=O)N2CCCCCC2)cc1)c1cccs1,inactive
16,CCC(=O)Nc1nc(C)c(-c2csc(Nc3ccc(S(=O)(=O)Nc4cc(C)on4)cc3)n2)s1,"inconclusive: 35.5 µM [inhibitor, single point]"
17,O=C(O)c1ccc(C[n+]2c(-c3ccccc3)csc2Nc2ccccc2)cc1,inactive
18,Cc1ccc(N2C(=O)C(CC(=O)Nc3cccc(F)c3)N(C3CC3)C2=O)cc1 (centres undefined),inactive
19,CCCC[n+]1ccn(C2=C([O-])c3ccccc3C(=O)/C2=N\S(=O)(=O)c2ccc(Cl)cc2)c1,inactive
20,O=C(CSc1nnc2ccccn12)NNC(=O)c1ccccc1,"inconclusive: 35.5 µM [inhibitor, partial curve]"
21,CC1=C(C(=O)Nc2ccccc2F)C(c2cccs2)NC(=S)N1 (centres undefined),inactive
22,O=C(NCCc1c[nH]c2ccc(Cl)cc12)c1cccnc1,inactive
23,Cc1nn(-c2ccccn2)c2c1-c1nc(N3CCOCC3)ncc1CC2,"inconclusive: 0.794 µM [inhibitor, partial curve]"
24,COc1ccc(/C=N/NC(=O)c2ccc(Br)cc2)c(OC)c1,"inconclusive: 39.8 µM [inhibitor, single point]"
25,CCOc1ccc2[nH]c(=O)c(CN(Cc3nnnn3Cc3ccco3)C3CCCCC3)cc2c1,"inconclusive: 22.4 µM [inhibitor, partial curve]"

row,Compound,Potency
1,CCOC(=O)c1c(C)noc1-c1ccc(Br)o1,"inconclusive: 20 µM [inhibitor, partial curve]"
2,Cc1ccc(NC(=O)CSc2nnc(-c3ccco3)c(-c3ccco3)n2)cc1,"inconclusive: 25.1 µM [inhibitor, partial curve]"
3,COc1ccc(C(=O)N2CCC(O)(c3ccc(Cl)cc3)CC2)cc1OC,"inconclusive: 35.5 µM [inhibitor, single point]"
4,COc1cc2[nH]c(-c3ccc(C)cc3)cc(=O)c2cc1OC,"inconclusive: 28.2 µM [inhibitor, partial curve]"
5,CCOC(=O)c1c(NC(=O)c2c(C)noc2C)sc2c1CCCCC2,"inconclusive: 39.8 µM [inhibitor, single point]"
6,O=C(Nc1ccc2oc(-c3ccccc3F)nc2c1)c1ncn[nH]1,"inconclusive: 20 µM [inhibitor, partial curve]"
7,CCCc1cc(-c2nc(-c3ccc(Br)cc3)cs2)ccn1,"inconclusive: 39.8 µM [inhibitor, single point]"
8,COc1ccc(/C=C2\SC(=S)N(N3CCOCC3)C2=O)c(OC)c1,inactive
9,CCSc1ccc2nnc(-c3cccc(F)c3)n2n1,"inconclusive: 25.1 µM [inhibitor, single point]"
10,COc1ccc(N2CC(O)=C(c3nc(-c4ccc(F)cc4)cs3)C2=N)cc1OC,"inconclusive: 35.5 µM [inhibitor, single point]"
11,Cc1ccc2nc3c(cc2c1)c(NC(=O)c1cccnc1)nn3C,"inconclusive: 20 µM [inhibitor, partial curve]"
12,COc1ccc(-c2cc(=O)c3cc(C)ccc3[nH]2)cc1,"inconclusive: 31.6 µM [inhibitor, single point]"
13,CCn1c(SCC(=O)C(C)(C)C)nnc1-c1ccccn1,inactive
14,O=c1c(Cc2ccccc2)c(O)ccn1Cc1ccco1,inactive
15,CCOc1ccc(NC(=O)Cn2nnc(-c3ccccc3NC(=O)c3cccs3)n2)cc1,inactive
16,O=C(O)C(=O)Cc1c[nH]c2ccccc12,"inconclusive: 39.8 µM [inhibitor, single point]"
17,COc1ccc(C(=O)CN2C(=O)C(C)(C)Oc3ccc(C(=O)N4CCCCCC4)cc32)cc1,inactive
18,Cc1cc(N2CCN(Cc3ccccc3)CC2)n2nc(C)c(-c3ccccc3)c2n1,"inconclusive: 8.91 µM [inhibitor, single point]"
19,CCOC(=O)Cn1c(=NC(=O)c2nc3ccccc3s2)sc2cc(S(N)(=O)=O)ccc21,"inconclusive: 28.2 µM [inhibitor, partial curve]"
20,N=C1/C(=C\c2coc3ccccc3c2=O)C(=O)N=C2SC(c3ccncc3)=NN12,inactive
21,COc1ccc(CNC(=O)COC(=O)c2ccccc2C(=O)c2ccccc2)cc1,inactive
22,COc1ccc2c(c1)c1ncn(CCN3CCCC3)c(=O)c1n2C,"inconclusive: 22.4 µM [inhibitor, partial curve]"
23,COc1ccccc1-c1coc2c(CN3CCN(C)CC3)c(O)ccc2c1=O,"inconclusive: 28.2 µM [inhibitor, partial curve]"
24,COc1ccc(/C=C/C(=O)NC(=S)NNC(=O)c2ccco2)cc1,"inconclusive: 23.8 µM [inhibitor, single point]"
